Results as given in article PMC3050027 (Molecular cell, 2010).

Biological target: the molecule itself
Assay: SEC

B1: BAX(E69K) (natural protein)
chain: not shown
B1: binds.

B2: BAX(K21E, E69K) (natural protein)
chain: not shown
B2: binds.
